Data from PubChem BioAssay AID2546 (National Center for Advancing Translational Sciences (NCATS), 2010).
Among all 310,000 compounds or so, about 11,000 (3.5%) were called active. Inconclusive means that the source gave no clear call. Such entries were picked first, then a sample of the others. The call rests on the fitted dose curve; in most records, active means well fitted inhibition curve with a large enough effect; inconclusive means small, poorly fitted or top-dose-only effect, or effect the other way; inactive means flat fitted curve, though single readings scatter. Potencies of inconclusive entries are left out as doubtful fits.

Test: VP16 counterscreen qHTS for inhibitors of ROR gamma transcriptional activity;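 further: Gal4-VP16 expression switched on by copper sulfate through the metallothionein promoter; nearly all actives have a fitted effect of over 50% in size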
Details: Drosophila S2 Gal4-VP16 UAS-luciferase, luminescence, 20 h; series mostly up to 53.6 µM
Potency means the concentration at half of the fitted maximal effect; tags describe the fitted curve by direction and shape.

SMILES | Potency
Cc1ccccc1NC(=S)NC(=O)Cc1ccc(Cl)cc1 | active: 7.08 µM
NS(=O)(=O)c1cc(C(=O)N=Nc2c(O)[nH]c3ccccc23)ccc1Cl | inconclusive [inhibitor, partial curve]
Cc1cc(C)cc(NC(=O)C2CCCC2)c1 | inactive
COc1ccc(-c2cc3ccc(OCC(=O)NCC4CCC(C(=O)O)CC4)cc3oc2=O)cc1 (stereo not drawn) | inconclusive [inhibitor, partial curve, poor fit]
O=C(c1cc(COc2ccc(F)c(F)c2)on1)N1CCOCC1 | inactive
CCOC(=O)c1c(NC(=O)C2CCCO2)sc(C(=O)OC(C)(C)C)c1C (stereo not drawn) | inactive
CC(=O)Nc1c(NC(=O)CC#N)[nH]c2c(c1=O)c(=O)n(C)c(=O)n2C | inactive
CCN(C(=S)NC(=O)c1ccccc1Br)C1CCCCC1 | active: 2.82 µM
C=CCC1(N(C(C)=O)c2ccccc2C)CCCCC1 | inconclusive [inhibitor, single point]
Cc1ccc2nc(C3CCCN(C(=S)Nc4ccccc4C)C3)[nH]c2c1 (stereo not drawn) | inconclusive [inhibitor, single point]
CC(=O)c1c(C(C)=O)c(C)n(NC(=O)c2ccncc2)c1C | inactive
COc1cccc(NC(=O)C(=O)c2cn(CC(=O)N3CCOCC3)c3ccccc23)c1 | inactive
O=C(O)c1ccccc1C(=O)c1cccs1 | inactive
S=C(Nc1ccc(Cl)cc1)NC1CCN(Cc2ccccc2)CC1 | inconclusive [inhibitor, single point]
COC(=O)c1ccc(C(=O)OC)c(-n2c(=O)c3ccccc3c3ccccc3c2=O)c1 | inconclusive [inhibitor, single point]
O=C(CSc1nnnn1-c1ccc2c(c1)OCO2)NCc1cccs1 | inactive
COc1ccc2c(c1)C1=C(CC2)C(c2ccc(C)cc2)NC(=S)N1 (stereo not drawn) | active: 2.82 µM
CCNC(=O)NC(=O)COC(=O)CCCc1nc2ccccc2s1 | inactive
Cc1ccccc1-c1nnc(-c2ccc(Br)cc2)o1 | active: 2.82 µM
Cn1cccc1-c1nc2ccc([N+](=O)[O-])cc2[nH]1 | inactive
CC(C)(C)c1ccc(NC(=O)CSc2nnc(-c3n[nH]c4ccccc34)o2)cc1 | inconclusive [inhibitor, single point]
CN1CCN(Cc2c(C(=O)N/N=C/c3cccc(Br)c3)nnn2-c2nonc2N)CC1 | inconclusive [inhibitor, single point]
Clc1ccccc1CN1CCN(CCCc2ccccc2)CC1 | inactive
